# From the supplement of paper PMC8728848
# This is one part of the list.
# B1: Na-CTL-1 (Necator americanus) (protein)
# chain: MQRSFLLLLVVLAGAWAVNTTIPLKLMGGFTPMKYQCVGRVSDIWADVLFLIESSDMITKSGFRQVIAFITATTKKMTIGQDEKQTRVGFITYGEEAKLIYDLDHWRSTEKLSDLVQKIPYVKSSGTNIAAAIALANKVFNSPTHRPNVPKVMVIVANGLKKGSQNPIPVATAFKDFGGIIITIEYTQYDNIQVPILKKIASEGYNIRSNDEDFSVRTLTNMLLQANCFCPDHYVPFRVNNPEFGCFVTAKIPSMWRDAAEMCRAVEEGKLVKVENEEKAAFIMKLVGPKKEAWIGLRYYGNKFQWTDGTKLNADDFNLWPEDIKELNGPHCVSMYQDQKDKKYYWRAGKCLEDMRYVCEVQPCSASNYCSEPVFMYRQKHRALLPAPPPPPN
# What was measured:
# Assay in all cases: glycan array binding signal (z-score within array); higher = stronger binding
# Conditions in all cases: glycan notation: IUPAC condensed, linker removed
# [1] = molecular target: Neu5Ac(a2-3)Gal(b1-3)GalNAc
# In short: (§1)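 Arrays were curated from the Consortium for Functional Glycomics database, 3228 in total, and kept only where the protein sequence was available. Binding is expressed as a within-array Z-score. This score was averaged across arrays of the same protein sequence at different concentrations or buffers and across linkers, and negative values can be read as non-binding.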
# [2] = molecular target: Neu5Ac(a2-3)Gal(b1-3)GalNAc(b1-3)Gal(a1-4)Gal(b1-4)Glc
# In short: as §1
# [3] = molecular target: Neu5Ac(a2-3)Gal(b1-3)GalNAc(b1-4)[Neu5Ac(a2-3)]Gal(b1-4)Glc
# In short: as §1
# [4] = molecular target: Neu5Ac(a2-3)Gal(b1-3)GalNAc(b1-4)[Neu5Ac(a2-8)Neu5Ac(a2-3)]Gal(b1-4)Glc
# In short: as §1
# [5] = molecular target: Neu5Ac(a2-3)Gal(b1-3)GalNAc6S
# In short: as §1
# [6] = molecular target: Neu5Ac(a2-3)Gal(b1-3)GlcNAc
# In short: as §1
# [7] = molecular target: Neu5Ac(a2-3)Gal(b1-3)GlcNAc(b1-2)Man
# In short: as §1
# [8] = molecular target: Neu5Ac(a2-3)Gal(b1-3)GlcNAc(b1-2)Man(a1-3)[GlcNAc(b1-4)][Neu5Ac(a2-3)Gal(b1-3)GlcNAc(b1-2)Man(a1-6)]Man(b1-4)GlcNAc(b1-4)GlcNAc
# In short: as §1
# [9] = molecular target: Neu5Ac(a2-3)Gal(b1-3)GlcNAc(b1-2)Man(a1-3)[Neu5Ac(a2-3)Gal(b1-3)GlcNAc(b1-2)Man(a1-6)]Man(b1-4)GlcNAc(b1-4)GlcNAc
# In short: as §1
# [10] = molecular target: Neu5Ac(a2-3)Gal(b1-3)GlcNAc(b1-3)Gal(b1-3)GlcNAc
# In short: as §1
# [11] = molecular target: Neu5Ac(a2-3)Gal(b1-3)GlcNAc(b1-3)Gal(b1-4)GlcNAc
# In short: as §1
# [12] = molecular target: Neu5Ac(a2-3)Gal(b1-3)GlcNAc(b1-3)GalNAc
# In short: as §1
# [13] = molecular target: Neu5Ac(a2-3)Gal(b1-3)GlcNAc(b1-4)Gal(b1-4)Glc
# In short: as §1
# [14] = molecular target: Neu5Ac(a2-3)Gal(b1-3)GlcNAc(b1-6)GalNAc
# In short: as §1
# [15] = molecular target: Neu5Ac(a2-3)Gal(b1-3)GlcNAc6S
# In short: as §1
# [16] = molecular target: Neu5Ac(a2-3)Gal(b1-3)[Fuc(a1-4)]GlcNAc
# In short: as §1
# [17] = molecular target: Neu5Ac(a2-3)Gal(b1-3)[Fuc(a1-4)]GlcNAc(b1-3)Gal(b1-3)[Fuc(a1-4)]GlcNAc
# In short: as §1
# [18] = molecular target: Neu5Ac(a2-3)Gal(b1-3)[Fuc(a1-4)]GlcNAc(b1-3)Gal(b1-4)[Fuc(a1-3)]GlcNAc
# In short: as §1
# [19] = molecular target: Neu5Ac(a2-3)Gal(b1-3)[GlcNAc(b1-6)]GalNAc
# In short: as §1
# [20] = molecular target: Neu5Ac(a2-3)Gal(b1-3)[Neu5Ac(a2-6)]GalNAc
# In short: as §1
# [21] = molecular target: Neu5Ac(a2-3)Gal(b1-3)[Neu5Ac(a2-6)]GlcNAc(b1-3)[Fuc(a1-3)[Gal(b1-4)]GlcNAc(b1-6)]Gal(b1-4)Glc
# In short: as §1
# [22] = molecular target: Neu5Ac(a2-3)Gal(b1-3)]Neu5Ac(a2-3)Gal(b1-4)]GlcNAc
# In short: as §1
# Neu5Ac(a2-3)Gal(b1-4)Glc = molecular target: Neu5Ac(a2-3)Gal(b1-4)Glc
# In short: as §1
# [23] = molecular target: Neu5Ac(a2-3)Gal(b1-4)GlcNAc
# In short: as §1
# [24] = molecular target: Neu5Ac(a2-3)Gal(b1-4)GlcNAc(b1-2)Man
# In short: as §1
# [25] = molecular target: Neu5Ac(a2-3)Gal(b1-4)GlcNAc(b1-2)Man(a1-3)[GlcNAc(b1-4)][Neu5Ac(a2-3)Gal(b1-4)GlcNAc(b1-2)Man(a1-6)]Man(b1-4)GlcNAc(b1-4)GlcNAc
# In short: as §1
# [26] = molecular target: Neu5Ac(a2-3)Gal(b1-4)GlcNAc(b1-2)Man(a1-3)[Neu5Ac(a2-3)Gal(b1-4)GlcNAc(b1-2)Man(a1-6)]Man(b1-4)GlcNAc(b1-4)GlcNAc
# In short: as §1
# [27] = molecular target: Neu5Ac(a2-3)Gal(b1-4)GlcNAc(b1-2)Man(a1-3)[Neu5Ac(a2-3)Gal(b1-4)GlcNAc(b1-2)Man(a1-6)]Man(b1-4)GlcNAc(b1-4)[Fuc(a1-6)]GlcNAc
# In short: as §1
# [28] = molecular target: Neu5Ac(a2-3)Gal(b1-4)GlcNAc(b1-2)Man(a1-3)[Neu5Ac(a2-6)Gal(b1-4)GlcNAc(b1-2)Man(a1-6)]Man(b1-4)GlcNAc(b1-4)GlcNAc
# In short: as §1
# [29] = molecular target: Neu5Ac(a2-3)Gal(b1-4)GlcNAc(b1-2)[Neu5Ac(a2-3)Gal(b1-4)GlcNAc(b1-4)]Man(a1-3)[GlcNAc(b1-4)][Neu5Ac(a2-3)Gal(b1-4)GlcNAc(b1-2)[Neu5Ac(a2-3)Gal(b1-4)GlcNAc(b1-6)]Man(a1-6)]Man(b1-4)GlcNAc(b1-4)GlcNAc
# In short: as §1
# [30] = molecular target: Neu5Ac(a2-3)Gal(b1-4)GlcNAc(b1-2)[Neu5Ac(a2-3)Gal(b1-4)GlcNAc(b1-4)]Man(a1-3)[GlcNAc(b1-4)][Neu5Ac(a2-3)Gal(b1-4)GlcNAc(b1-4)Man(a1-6)]Man(b1-4)GlcNAc(b1-4)GlcNAc
# In short: as §1
# [31] = molecular target: Neu5Ac(a2-3)Gal(b1-4)GlcNAc(b1-2)[Neu5Ac(a2-3)Gal(b1-4)GlcNAc(b1-6)]Man(a1-6)[Neu5Ac(a2-3)Gal(b1-4)GlcNAc(b1-2)Man(a1-3)]Man(b1-4)GlcNAc(b1-4)GlcNAc
# In short: as §1
# [32] = molecular target: Neu5Ac(a2-3)Gal(b1-4)GlcNAc(b1-2)[Neu5Ac(a2-3)Gal(b1-4)GlcNAc(b1-6)]Man(a1-6)[Neu5Ac(a2-3)Gal(b1-4)GlcNAc(b1-2)Man(a1-3)][GlcNAc(b1-4)]Man(b1-4)GlcNAc(b1-4)GlcNAc
# In short: as §1
# [33] = molecular target: Neu5Ac(a2-3)Gal(b1-4)GlcNAc(b1-3)Gal
# In short: as §1
# [34] = molecular target: Neu5Ac(a2-3)Gal(b1-4)GlcNAc(b1-3)Gal(b1-3)GlcNAc
# In short: as §1
# [35] = molecular target: Neu5Ac(a2-3)Gal(b1-4)GlcNAc(b1-3)Gal(b1-4)GlcNAc
# In short: as §1
# [36] = molecular target: Neu5Ac(a2-3)Gal(b1-4)GlcNAc(b1-3)Gal(b1-4)GlcNAc(b1-2)Man(a1-3)[Neu5Ac(a2-3)Gal(b1-4)GlcNAc(b1-3)Gal(b1-4)GlcNAc(b1-2)Man(a1-6)]Man(b1-4)GlcNAc(b1-4)GlcNAc
# In short: as §1
binder,measurement,setting,value
B1,glycan array binding signal (z-score),[1],1.04
same,glycan array binding signal (z-score),[2],-0.094
same,glycan array binding signal (z-score),[3],0.065
same,glycan array binding signal (z-score),[4],-0.304
same,glycan array binding signal (z-score),[5],0.024
same,glycan array binding signal (z-score),[6],-0.301
same,glycan array binding signal (z-score),[7],0.012
same,glycan array binding signal (z-score),[8],-0.172
same,glycan array binding signal (z-score),[9],-0.05
same,glycan array binding signal (z-score),[10],-0.345
same,glycan array binding signal (z-score),[11],0.041
same,glycan array binding signal (z-score),[12],-0.655
same,glycan array binding signal (z-score),[13],-0.381
same,glycan array binding signal (z-score),[14],0.262
same,glycan array binding signal (z-score),[15],0.215
same,glycan array binding signal (z-score),[16],0.115
same,glycan array binding signal (z-score),[17],-0.347
same,glycan array binding signal (z-score),[18],0.365
same,glycan array binding signal (z-score),[19],-0.018
same,glycan array binding signal (z-score),[20],-0.351
same,glycan array binding signal (z-score),[21],-0.348
same,glycan array binding signal (z-score),[22],-0.161
same,glycan array binding signal (z-score),Neu5Ac(a2-3)Gal(b1-4)Glc,2.35
same,glycan array binding signal (z-score),[23],0.102
same,glycan array binding signal (z-score),[24],0.152
same,glycan array binding signal (z-score),[25],-0.114
same,glycan array binding signal (z-score),[26],0.287
same,glycan array binding signal (z-score),[27],0.341
same,glycan array binding signal (z-score),[28],-0.176
same,glycan array binding signal (z-score),[29],-0.059
same,glycan array binding signal (z-score),[30],0.04
same,glycan array binding signal (z-score),[31],-0.312
same,glycan array binding signal (z-score),[32],-0.202
same,glycan array binding signal (z-score),[33],-0.2
same,glycan array binding signal (z-score),[34],-0.713
same,glycan array binding signal (z-score),[35],-0.293
same,glycan array binding signal (z-score),[36],-0.287
